# According to the supplement of paper PMC8728848:
# The other results are listed elsewhere or left out.
# B1: DETC sTCR (Mus musculus) (protein)
# chain: LDVYLEPVAKTFTVVAGDPASFYCTVTGGDMKNYHMSWYKKNGTNALFLVYKLNSNSTDGGKSNLKGKINISKNQFILDIQKATMKDAGTYYCGSDIGGSSWDTRQMFFGTGIELFVEPKSQPPAKPSVFIMKNGTNVACLVKDFYPKEVTISLRSSKKIVEFDPAIVISPSGKYSAVKLGQYGDSNSVTCSVQHNSETVHSTDFEPYANSFNNEKLPEPENDTQISEPCSSADLVPRGSTTAPSAQLKKKLQALKKKNAQLKWKLQALKKKLAQHHHHHHDSWISQDQLSFTRRPNKTVHISCKLSGVPLHNTIVHWYQLKEGEPLRRIFYGSVKTYKQDKSHSRLEIDEKDDGTFYLIINNVVTSDEATYYCACWDSSGFHKVFAEGTKLIVIPSDKRLDADISPKPTIFLPSVAETNLHKTGTYLCLLEKFFPDVIRVYWKEKDGNTILDSQEGDTLKTNDTYMKFSWLTVPERAMGKEHRCIVKHENNKGGADQEIFFPSIKKVAVSTKPTTCSSADLVPRGSTTAPSAQLEKELQALEKENAQLEWELQALEKELAQLNDIFEAQKIEW
# Key:
# Test in all cases: glycan array binding signal (z-score within array); higher = stronger binding
# Details in all cases: glycan notation: IUPAC condensed, linker removed
# Fuc(a1-2)Gal = target: Fuc(a1-2)Gal
# Outline: (§1)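 Arrays were curated from the Consortium for Functional Glycomics database, 3228 in total, and kept only where the protein sequence was available. Binding is expressed as a within-array Z-score. This score was averaged across arrays of the same protein sequence at different concentrations or buffers and across linkers, and negative values can be read as non-binding.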
# Fuc(a1-2)Gal(b1-3)GalNAc = target: Fuc(a1-2)Gal(b1-3)GalNAc
# Outline: as §1
# [1] = target: Fuc(a1-2)Gal(b1-3)GalNAc(b1-3)Gal
# Outline: as §1
# [2] = target: Fuc(a1-2)Gal(b1-3)GalNAc(b1-3)Gal(a1-4)Gal(b1-4)Glc
# Outline: as §1
# [3] = target: Fuc(a1-2)Gal(b1-3)GalNAc(b1-4)[Neu5Ac(a2-3)]Gal(b1-4)Glc
# Outline: as §1
# Fuc(a1-2)Gal(b1-3)GlcNAc = target: Fuc(a1-2)Gal(b1-3)GlcNAc
# Outline: as §1
# [4] = target: Fuc(a1-2)Gal(b1-3)GlcNAc(b1-2)Man(a1-3)[Fuc(a1-2)Gal(b1-3)GlcNAc(b1-2)Man(a1-6)]Man(b1-4)GlcNAc(b1-4)GlcNAc
# Outline: as §1
# [5] = target: Fuc(a1-2)Gal(b1-3)GlcNAc(b1-3)Gal(b1-4)Glc
# Outline: as §1
# [6] = target: Fuc(a1-2)Gal(b1-3)GlcNAc(b1-3)[Gal(b1-4)[Fuc(a1-3)]GlcNAc(b1-6)]Gal(b1-4)Glc
# Outline: as §1
# [7] = target: Fuc(a1-2)Gal(b1-3)[Fuc(a1-4)]GlcNAc
# Outline: as §1
# [8] = target: Fuc(a1-2)Gal(b1-3)[Fuc(a1-4)]GlcNAc(b1-2)Man(a1-3)[Fuc(a1-2)Gal(b1-3)[Fuc(a1-4)]GlcNAc(b1-2)Man(a1-6)]Man(b1-4)GlcNAc(b1-4)GlcNAc
# Outline: as §1
# Fuc(a1-2)Gal(b1-4)Glc = target: Fuc(a1-2)Gal(b1-4)Glc
# Outline: as §1
# Fuc(a1-2)Gal(b1-4)Glc6S = target: Fuc(a1-2)Gal(b1-4)Glc6S
# Outline: as §1
# Fuc(a1-2)Gal(b1-4)GlcNAc = target: Fuc(a1-2)Gal(b1-4)GlcNAc
# Outline: as §1
# [9] = target: Fuc(a1-2)Gal(b1-4)GlcNAc(b1-2)Man(a1-3)[Fuc(a1-2)Gal(b1-4)GlcNAc(b1-2)Man(a1-6)]Man(b1-4)GlcNAc(b1-4)GlcNAc
# Outline: as §1
# [10] = target: Fuc(a1-2)Gal(b1-4)GlcNAc(b1-3)Gal(b1-4)GlcNAc
# Outline: as §1
# [11] = target: Fuc(a1-2)Gal(b1-4)GlcNAc(b1-3)Gal(b1-4)GlcNAc(b1-3)Gal(b1-4)GlcNAc
# Outline: as §1
# [12] = target: Fuc(a1-2)Gal(b1-4)GlcNAc6S
# Outline: as §1
# [13] = target: Fuc(a1-2)Gal(b1-4)[Fuc(a1-3)]GlcNAc
# Outline: as §1
# [14] = target: Fuc(a1-2)Gal(b1-4)[Fuc(a1-3)]GlcNAc(b1-2)Man(a1-3)[Fuc(a1-2)Gal(b1-4)[Fuc(a1-3)]GlcNAc(b1-2)Man(a1-6)]Man(b1-4)GlcNAc(b1-4)GlcNAc
# Outline: as §1
# [15] = target: Fuc(a1-2)Gal(b1-4)[Fuc(a1-3)]GlcNAc(b1-3)Gal(b1-4)[Fuc(a1-3)]GlcNAc
# Outline: as §1
# [16] = target: Fuc(a1-2)Gal(b1-4)[Fuc(a1-3)]GlcNAc(b1-3)Gal(b1-4)[Fuc(a1-3)]GlcNAc(b1-3)Gal(b1-4)[Fuc(a1-3)]GlcNAc
# Outline: as §1
# Fuc(a1-2)Gal6S(b1-4)Glc = target: Fuc(a1-2)Gal6S(b1-4)Glc
# Outline: as §1
# [17] = target: Fuc(a1-2)Gal6S(b1-4)Glc6S
# Outline: as §1
# [18] = target: Fuc(a1-2)Gal6S(b1-4)GlcNAc
# Outline: as §1
# Fuc(a1-2)[Gal(a1-3)]Gal = target: Fuc(a1-2)[Gal(a1-3)]Gal
# Outline: as §1
# [19] = target: Fuc(a1-2)[Gal(a1-3)]Gal(b1-3)GlcNAc
# Outline: as §1
# [20] = target: Fuc(a1-2)[Gal(a1-3)]Gal(b1-3)GlcNAc(b1-2)Man(a1-3)[Fuc(a1-2)[Gal(a1-3)]Gal(b1-3)GlcNAc(b1-2)Man(a1-6)]Man(b1-4)GlcNAc(b1-4)GlcNAc
# Outline: as §1
# [21] = target: Fuc(a1-2)[Gal(a1-3)]Gal(b1-4)Glc
# Outline: as §1
# [22] = target: Fuc(a1-2)[Gal(a1-3)]Gal(b1-4)GlcNAc
# Outline: as §1
binder,measurement,setting,value
B1,glycan array binding signal (z-score),Fuc(a1-2)Gal,-0.167
same,glycan array binding signal (z-score),Fuc(a1-2)Gal(b1-3)GalNAc,-0.499
same,glycan array binding signal (z-score),[1],0.476
same,glycan array binding signal (z-score),[2],-0.528
same,glycan array binding signal (z-score),[3],-0.465
same,glycan array binding signal (z-score),Fuc(a1-2)Gal(b1-3)GlcNAc,-0.497
same,glycan array binding signal (z-score),[4],-0.618
same,glycan array binding signal (z-score),[5],-0.112
same,glycan array binding signal (z-score),[6],-0.448
same,glycan array binding signal (z-score),[7],0.111
same,glycan array binding signal (z-score),[8],0.545
same,glycan array binding signal (z-score),Fuc(a1-2)Gal(b1-4)Glc,-0.047
same,glycan array binding signal (z-score),Fuc(a1-2)Gal(b1-4)Glc6S,0.321
same,glycan array binding signal (z-score),Fuc(a1-2)Gal(b1-4)GlcNAc,-0.268
same,glycan array binding signal (z-score),[9],-0.199
same,glycan array binding signal (z-score),[10],-0.612
same,glycan array binding signal (z-score),[11],-0.402
same,glycan array binding signal (z-score),[12],0.066
same,glycan array binding signal (z-score),[13],0.056
same,glycan array binding signal (z-score),[14],-0.281
same,glycan array binding signal (z-score),[15],-0.194
same,glycan array binding signal (z-score),[16],-0.49
same,glycan array binding signal (z-score),Fuc(a1-2)Gal6S(b1-4)Glc,-0.576
same,glycan array binding signal (z-score),[17],0.416
same,glycan array binding signal (z-score),[18],2.96
same,glycan array binding signal (z-score),Fuc(a1-2)[Gal(a1-3)]Gal,0.343
same,glycan array binding signal (z-score),[19],-0.572
same,glycan array binding signal (z-score),[20],-0.205
same,glycan array binding signal (z-score),[21],-0.655
same,glycan array binding signal (z-score),[22],-0.488
